The full ranking holds about 81,000 sequences; the median of “one-hybrid fitness for binding NBS DNA” is about -0.1, and the highest 2% start at about 0.36. The list shows a part of the results.
B1: Caulobacter ParB omega fusion; a variant is named by its letters at X, in order, B8GW30 (parent)
chain: MESVVVGEPGMSEGRRGLGRGLSALLGEVDAAPAQAPGEQLGGSREAPIEILQRNPDQPRRTFREEDLEDLSNSIREKGVLQPILVRPSPDTAGEYQIVAGERAWRAAQRAGLKTVPIMVRELDDLAVLEIGIIENVQRADLNVLEEALSYKVLMEKFERTQENIAQTIGKSXSHVANXMRLLXLPDEVQSYLVSGELTAXHARAIAAAADPVALAKQIIEGGLSVRETEALARKAPNLSAGKSKGGRPPRVKDTDTQALESDLSSVLGLDVSIDHRGSTGTLTITYATLEQLDDLCNRLTRGI

Variants of: B1
Assay: one-hybrid fitness for binding NBS DNA (the Noc-binding site; scaled: cognate 1, non-cognate 0); higher = stronger binding
Details: with NBS DNA site
In short: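 Pre- and post-selection plasmids were Illumina-sequenced, three replicate libraries were pooled, and any variant with under 10 reads was removed. The libraries were Caulobacter ParB with four specificity codons randomised, selected in E. coli USO through a HIS3 reporter whose site is 19 bp from the promoter. Cells grew 48 hours at 37°C on M9 without histidine, with 0.1 mM IPTG and 5 mM 3-AT. Fitness is the log change in variant-to-wild-type read ratio, rescaled against cognate and non-cognate.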

one-hybrid fitness for binding NBS DNA, 0.363:
RTNA

one-hybrid fitness for binding NBS DNA, 0.321:
RRVH

one-hybrid fitness for binding NBS DNA, 0.402:
QMIT

one-hybrid fitness for binding NBS DNA, ≤ 0.2:
TRGY
FSPC
VWIS
ECPA
NAGV
TRYQ
MYRM
IITW
VSDA
DTAV
VPYS
GLMG
RMYP
HSAG
HVVD
DVRA
KLMT
NPDR
HSPH
THML
ANGA
TKLI
VPLS
KRYG
RHPK
SEHG
SCWG
HYIY
FNKL
TNHD
KMNY
EMIR
HRLD
RNTH
PFER
VISK
KKPC
VIDR
DPQD
GCST
FPFF
CFML
TMEG
TYLT
LPYH
MFRF
SLHV
ENIT
LPFG
GHPS
TISN
YRTW
GLTL
IGLT
DRNS
IYKI
MIME
MTII
IFLY
MDAV
PEDC
NIQC
LVVD
YPRR
KQMI
LHYS
QVCV
FGSS
HVKA
TNPL
CRIR
SEQQ
SVQD
HHLW
PGKM
AISI
ESGW
SRHC
MWPE
SYHG
SDRI
IVNL
ICCR
KSLF
KGTG
DHRT
TSNM
LAVS
KIMF
MWYG
PPGN
MLCG
DGNA
PDTT
EKRV
NMDV
KDWW
ERSL
HQFS
PINC
IVPC
PTQG
YMAL
ETKL
KPLL
CPYN
AFTI
TNNY
QHMC
RVGL
MCSS
LYYS
TQST
EMCR
FPWR
QNLK
AYRD
ALSG
LPTT
NIVR
SCKA
NGPS
FYYR
FAEG
CHTA
IDKY
YSSR
FDTC
GFVG
RSNV
TMTL
QQTI
NMRR
PKNM
DKIC
STIR
MSYR
GRNF
VCPA
YDTP
YFRC
DLGP
FHRS
YGAI
PYLY
SPQP
KAPR
IYLV
MQGD
KMAS
CLLG
NCKS
GWRC
EHTD
VGDS
SLII
DCYG
TTNN
GRQW
GGSD
TSPQ
PNEL
MPFS
VAIR
WSLR
DGPW
IIVL
GAQI
LVYF
RIAV
NVVV
SWRT
NGSL
KSTV
QPHE
QPNP
LLWN
AMQN
WPHG
RVQN
RQTL
YMAR
GPVK
WIMS
VHSW
EFYK
LNGG

one-hybrid fitness for binding NBS DNA, 0.424:
RMYR

one-hybrid fitness for binding NBS DNA, 0.493:
RRNN

one-hybrid fitness for binding NBS DNA, 0.237:
VRKY

one-hybrid fitness for binding NBS DNA, 0.499:
QQRK

one-hybrid fitness for binding NBS DNA, 0.744:
QRYT
